This passage reports binding signal results from paper PMC12820563, “FoxP3 forms a head-to-head dimer in vivo and stabilizes its multimerization on adjacent microsatellites”.

Some of the results follow.

This test deals with T1, MBP-FoxP1dN (Mus musculus, UniProt P58462 326-579).
T1 sequence: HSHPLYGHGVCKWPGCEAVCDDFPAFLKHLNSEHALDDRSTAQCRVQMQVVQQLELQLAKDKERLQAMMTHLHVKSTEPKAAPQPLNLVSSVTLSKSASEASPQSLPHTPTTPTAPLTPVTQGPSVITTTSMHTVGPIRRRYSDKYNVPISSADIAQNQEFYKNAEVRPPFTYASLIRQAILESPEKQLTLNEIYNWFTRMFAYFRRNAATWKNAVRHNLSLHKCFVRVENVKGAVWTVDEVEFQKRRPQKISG
Description: PD-seq (MBP pull-down with sequencing); 20 mM Tris-HCl pH 7.5, 100 mM NaCl, 1.5 mM MgCl2, 0.4 uM protein, 0.1 uM dsDNA library, 30 min, room temperature, amylose pull-down; high values mean tight binding. Conditions: protein: recombinant; tags: His6-MBP; chain copies: 2; dsDNA, one strand shown. A digest of the protocol: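 Binding is the reads-per-million enrichment of pull-down relative to input, pooled across replicates. For this, 0.4 µM His6-MBP-tagged mouse FoxP3 or FoxP1 fragment lacking the N-terminus, made in E. coli, was incubated with 0.1 µM Klenow-filled double-stranded degenerate DNA library for 30 min at room temperature in Tris pH 7.5 buffer with NaCl and MgCl2. Complexes bound to amylose resin were washed three times before proteinase K released the DNA for PCR barcoding and Illumina sequencing.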
As to “GATGATTGTTCTCCCAGCTGATGAATTATGTGCGTCGAGTAAACAAATTTTCCTAATCTTTCTGTTCAAGCGCCATCTAC”, the binding signal was 1.27 RPM ratio (pull-down/input).

Consider “GATGATTGTTCTCCCAGCTGATGAATTGCTGTTTTCGAGTAAACAAATTTTCCTAATCTTTCTGTTCAAGCGCCATCTAC”, for which the binding signal was 2.45 RPM ratio (pull-down/input).

For “GATGATTGTTCTCCCAGCTGATGAATTTATGTGCTCGAGTAAACAAATTTTCCTAATCTTTCTGTTCAAGCGCCATCTAC”, the binding signal was 1.18 RPM ratio (pull-down/input).

On to “GATGATTGTTCTCCCAGCTGATGAATTTGAATTGTCGAGTAAACAAATTTTCCTAATCTTTCTGTTCAAGCGCCATCTAC”, for which the binding signal was 0.982 RPM ratio (pull-down/input).

For “GATGATTGTTCTCCCAGCTGATGAATTAGATCTTTCGAGTAAACAAATTTTCCTAATCTTTCTGTTCAAGCGCCATCTAC”, the binding signal is 0.854 RPM ratio (pull-down/input).

Consider “GATGATTGTTCTCCCAGCTGATGAATTCTCTGGATCGAGTAAACAAATTTTCCTAATCTTTCTGTTCAAGCGCCATCTAC”, for which the binding signal is 0.742 RPM ratio (pull-down/input).

For “GATGATTGTTCTCCCAGCTGATGAATTCAAAACTTCGAGTAAACAAATTTTCCTAATCTTTCTGTTCAAGCGCCATCTAC”, the binding signal is 0.933 RPM ratio (pull-down/input).

With “GATGATTGTTCTCCCAGCTGATGAATTGGGTTCGTCGAGTAAACAAATTTTCCTAATCTTTCTGTTCAAGCGCCATCTAC”, the binding signal is 0.845 RPM ratio (pull-down/input).

Turning to “GATGATTGTTCTCCCAGCTGATGAATTGCATGAGTCGAGTAAACAAATTTTCCTAATCTTTCTGTTCAAGCGCCATCTAC”, the binding signal was 0.973 RPM ratio (pull-down/input).

As for “GATGATTGTTCTCCCAGCTGATGAATTTGTAGCATCGAGTAAACAAATTTTCCTAATCTTTCTGTTCAAGCGCCATCTAC”, the binding signal was 1.37 RPM ratio (pull-down/input).

Turning to “GATGATTGTTCTCCCAGCTGATGAATTGCCAGTGTCGAGTAAACAAATTTTCCTAATCTTTCTGTTCAAGCGCCATCTAC”, the binding signal was 0.843 RPM ratio (pull-down/input).

As to “GATGATTGTTCTCCCAGCTGATGAATTTCAACGTTCGAGTAAACAAATTTTCCTAATCTTTCTGTTCAAGCGCCATCTAC”, the binding signal is 0.856 RPM ratio (pull-down/input).

Regarding “GATGATTGTTCTCCCAGCTGATGAATTACCACAGTCGAGTAAACAAATTTTCCTAATCTTTCTGTTCAAGCGCCATCTAC”, the binding signal was 0.985 RPM ratio (pull-down/input).

As for “GATGATTGTTCTCCCAGCTGATGAATTTACCAAGTCGAGTAAACAAATTTTCCTAATCTTTCTGTTCAAGCGCCATCTAC”, the binding signal was 1.16 RPM ratio (pull-down/input).

For “GATGATTGTTCTCCCAGCTGATGAATTCCTGAAGTCGAGTAAACAAATTTTCCTAATCTTTCTGTTCAAGCGCCATCTAC”, the binding signal was 0.808 RPM ratio (pull-down/input).

Turning to “GATGATTGTTCTCCCAGCTGATGAATTCCATCAGTCGAGTAAACAAATTTTCCTAATCTTTCTGTTCAAGCGCCATCTAC”, the binding signal was 0.814 RPM ratio (pull-down/input).

Take “GATGATTGTTCTCCCAGCTGATGAATTGCCATGGTCGAGTAAACAAATTTTCCTAATCTTTCTGTTCAAGCGCCATCTAC”: the binding signal was 0.932 RPM ratio (pull-down/input).

In the case of “GATGATTGTTCTCCCAGCTGATGAATTCCCATTCTCGAGTAAACAAATTTTCCTAATCTTTCTGTTCAAGCGCCATCTAC”, the binding signal is 0.789 RPM ratio (pull-down/input).

As for “GATGATTGTTCTCCCAGCTGATGAATTTCGGAAGTCGAGTAAACAAATTTTCCTAATCTTTCTGTTCAAGCGCCATCTAC”, the binding signal was 0.772 RPM ratio (pull-down/input).

In the case of “GATGATTGTTCTCCCAGCTGATGAATTTACGGGGTCGAGTAAACAAATTTTCCTAATCTTTCTGTTCAAGCGCCATCTAC”, the binding signal is 0.972 RPM ratio (pull-down/input).

On to “GATGATTGTTCTCCCAGCTGATGAATTCCTAATATCGAGTAAACAAATTTTCCTAATCTTTCTGTTCAAGCGCCATCTAC”, for which the binding signal is 1.07 RPM ratio (pull-down/input).

In the case of “GATGATTGTTCTCCCAGCTGATGAATTCCCGATGTCGAGTAAACAAATTTTCCTAATCTTTCTGTTCAAGCGCCATCTAC”, the binding signal is 0.877 RPM ratio (pull-down/input).

Turning to “GATGATTGTTCTCCCAGCTGATGAATTGACTTCATCGAGTAAACAAATTTTCCTAATCTTTCTGTTCAAGCGCCATCTAC”, the binding signal was 1.04 RPM ratio (pull-down/input).

As to “GATGATTGTTCTCCCAGCTGATGAATTCCTTAGTTCGAGTAAACAAATTTTCCTAATCTTTCTGTTCAAGCGCCATCTAC”, the binding signal is 0.811 RPM ratio (pull-down/input).

Regarding “GATGATTGTTCTCCCAGCTGATGAATTCTCCATGTCGAGTAAACAAATTTTCCTAATCTTTCTGTTCAAGCGCCATCTAC”, the binding signal is 0.807 RPM ratio (pull-down/input).

As for “GATGATTGTTCTCCCAGCTGATGAATTACTTCTTTCGAGTAAACAAATTTTCCTAATCTTTCTGTTCAAGCGCCATCTAC”, the binding signal was 1.02 RPM ratio (pull-down/input).

Take “GATGATTGTTCTCCCAGCTGATGAATTTGACTGTTCGAGTAAACAAATTTTCCTAATCTTTCTGTTCAAGCGCCATCTAC”: the binding signal was 0.833 RPM ratio (pull-down/input).

For the sequence “GATGATTGTTCTCCCAGCTGATGAATTTGGGCTATCGAGTAAACAAATTTTCCTAATCTTTCTGTTCAAGCGCCATCTAC”, the binding signal is 0.92 RPM ratio (pull-down/input).

Take “GATGATTGTTCTCCCAGCTGATGAATTGGATAACTCGAGTAAACAAATTTTCCTAATCTTTCTGTTCAAGCGCCATCTAC”: the binding signal was 0.879 RPM ratio (pull-down/input).

As to “GATGATTGTTCTCCCAGCTGATGAATTTCTTAATTCGAGTAAACAAATTTTCCTAATCTTTCTGTTCAAGCGCCATCTAC”, the binding signal is 1.04 RPM ratio (pull-down/input).

As to “GATGATTGTTCTCCCAGCTGATGAATTCATACTATCGAGTAAACAAATTTTCCTAATCTTTCTGTTCAAGCGCCATCTAC”, the binding signal was 1.06 RPM ratio (pull-down/input).
